The results in this text go back to PubChem BioAssay AID1347073 (National Center for Advancing Translational Sciences (NCATS), 2019).

The whole screen tested about 45,000 compounds, of which about 200 (0.44%) were called active. Roughly 7% stayed inconclusive and do not appear here. Calls come from the whole dose curve; as a rule, active = well fitted activation curve with a large enough effect; inconclusive = small, poorly fitted or top-dose-only effect; inactive = no such curve, though single readings can be large or run the other way. The list shows a part of the results.

The experiment in a line: qHTS of TDP-43 Inhibitors: NCGC Sytravon Library Screen. Note: 0% is about no effect; nearly all actives have a fitted effect of over 55% in size. The conditions noted are these: yeast TDP-43 toxicity rescue, BacTiter-Glo growth, 24 h; series mostly up to 46.1 µM; growth rescue (activation): at the top concentration. In a few lines:
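TDP-43-expressing yeast, pregrown in raffinose, seeded at OD600 0.02 in galactose medium with compound for 24 hr at 30 deg C. Growth read by BacTiter-Glo luminescence, so rescue of toxicity appears as activation.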
Take `COc1ccc(-n2c(SCC(=O)NNC(=O)c3ccc(C)cc3)nnc2-c2ccncc2)cc1`: the “growth rescue (activation)” value was inactive: 6.78%.

Take `Cc1cc(C)n(CCc2nc(-c3ccc(-c4ccccc4)cc3)cs2)n1`: the “growth rescue (activation)” value was inactive: 17.1%.

Consider `O=C(O)CSCC(=O)NCc1ccc(Cl)cc1`, for which the “growth rescue (activation)” value was inactive: 1.51%.

With `CCN(c1ccccc1)P(=O)(Nc1ccccc1)Nc1ccccc1`, the “growth rescue (activation)” value is inactive: 0.0907%.

Regarding `O=C(O)/C=C/C(=O)NCCc1cccc(Cl)c1`, the “growth rescue (activation)” value is inactive: -11.5%.

For the compound `CCN(Cc1ccccc1)C(=O)COC(=O)c1cc(=O)[nH]c2ccccc12`, the “growth rescue (activation)” value is inactive: -1.7%.

For the compound `O=C(c1ccccn1)N1CCN(S(=O)(=O)c2ccccc2)CC1`, the “growth rescue (activation)” value is inactive: -1.16%.

For the compound `CC(C)c1ccc(NC(=O)c2n[nH]c(=O)c3ccccc23)cc1`, the “growth rescue (activation)” value is inactive: 5.94%.

Turning to `CCOC(=O)N1CCN(C(=O)c2cc3c(-c4cccc(OC)c4)nn(C)c3s2)CC1`, the “growth rescue (activation)” value is inactive: 35%.

On to `Cc1cnc([N+](=O)[O-])n1CCOC(=O)c1cccc(F)c1`, for which the “growth rescue (activation)” value was inactive: 26.1%.

`O=S(=O)(c1ccc2c(c1)CCC2)N1CCNCC1`: the “growth rescue (activation)” value is inactive: -11.2%.

With `O=C(Cn1nc(-c2cccs2)ccc1=O)Nc1ccc(Br)cc1`, the “growth rescue (activation)” value was inactive: 0.906%.

`CC1(C)CC(=O)c2cc(C(=O)NC3CCSC3=O)c(=O)n(-c3ccc(Cl)cc3)c2C1` (stereo not given): the “growth rescue (activation)” value was inactive: -22.5%.

For `CCN(CC)c1ncnc2c1ncn2[C@H]1CN(Cc2ccc(-c3ccccc3)cc2)C[C@@H](CO)O1`, the “growth rescue (activation)” value is inactive: -1.1%.

On to `COC(=O)c1ccc(C(=O)OC)c(NC(=O)COC(=O)c2ccc(OC)c(OC)c2OC)c1`, for which the “growth rescue (activation)” value was inactive: -14.1%.

Consider `Cc1cccc(NC(=O)c2ccc3nccnc3c2)c1C`, for which the “growth rescue (activation)” value is inactive: 29.8%.

`COc1ccc(OC)c(C(=O)CN2C(=O)C(=O)N(C3CCCC3)C2=O)c1`: the “growth rescue (activation)” value was inactive: 16.2%.

Consider `COc1cccc(-c2cc3nc(NCc4cccnc4)n(C)c(=O)c3s2)c1`, for which the “growth rescue (activation)” value is inactive: 4.58%.

As for `CCN(CC)CCCNC(=O)c1ccc(S(=O)(=O)Nc2ccc(C)c(C)c2)cc1`, the “growth rescue (activation)” value was inactive: 19.9%.

Consider `Cn1c(CNc2ccccc2)nc2ccccc21`, for which the “growth rescue (activation)” value was inactive: -27.3%.

On to `Cc1ccccc1C(=O)NCCCCc1ccccc1`, for which the “growth rescue (activation)” value was inactive: 15.6%.

For `O=S(=O)(Nc1nc2c(s1)CCCC2)c1ccc2ccccc2c1`, the “growth rescue (activation)” value was inactive: 6.16%.

With `Cc1ccc(N2C(=O)c3ccccc3C2C(=O)c2ccc(O)cc2O)cc1` (stereo not given), the “growth rescue (activation)” value is inactive: -3.76%.

As for `CCOC(=O)c1ccc2c(c1)[n+](CC)c(C)n2-c1ccccc1`, the “growth rescue (activation)” value is inactive: 11.6%.

Take `CCC(Cc1ccccc1)NC(=O)C1=C(C)C(=O)OC12CCC(C)CC2` (stereo not given): the “growth rescue (activation)” value was inactive: 9.45%.

For `CSCCC(NS(=O)(=O)c1ccccc1F)C(=O)NCC(c1ccco1)N(C)C` (stereo not given), the “growth rescue (activation)” value is inactive: 5.71%.

On to `CCOc1ccccc1CN1C(=O)NC2(CCCCCC2)C1=O`, for which the “growth rescue (activation)” value is inactive: 15.8%.

Turning to `C=CCNC(=S)Nc1cc(Cl)ccc1OC`, the “growth rescue (activation)” value was inactive: -11.2%.

In the case of `COc1ccc(CN(C)Cc2cc(=O)oc3cc(C)c(C(C)C)cc23)cc1OC`, the “growth rescue (activation)” value was inactive: -7.85%.

Turning to `O=[N+]([O-])c1ccc(O)c2cccnc12`, the “growth rescue (activation)” value was inactive: 21.7%.

For the compound `COc1ccc(CN(C)C(=O)/C=C/c2ccc(S(=O)(=O)N3CCOCC3)cc2)cc1F`, the “growth rescue (activation)” value was inactive: 17%.

With `CCC(Sc1nnc(-c2ccco2)n1C)C(=O)Nc1nnc(C)s1` (stereo not given), the “growth rescue (activation)” value is inactive: 10.5%.

Consider `CC(=O)NC(CC(=O)O)c1ccc([N+](=O)[O-])cc1` (stereo not given), for which the “growth rescue (activation)” value is inactive: -9.76%.

Turning to `C=CCc1c(N(CC)CC)nc(C)[nH]c1=O`, the “growth rescue (activation)” value was inactive: 24.1%.

As to `COc1cc(OC)c(OC)cc1CN1CCN(Cc2ccc(SC)cc2)CC1`, the “growth rescue (activation)” value is inactive: -18%.

As to `CSc1ccccc1NC(=O)COC(=O)CCC(=O)c1ccc(F)cc1`, the “growth rescue (activation)” value is inactive: -19.2%.

Consider `Cc1ccc(C)n1C(CC(=O)O)c1ccc(C#N)cc1` (stereo not given), for which the “growth rescue (activation)” value was inactive: -19.3%.

In the case of `CC1CCC2(CC1)NC(=O)N(Cc1nc(-c3ccccc3)no1)C2=O` (stereo not given), the “growth rescue (activation)” value was inactive: 24.2%.

As to `Cc1cc(C)n2c(nc3ccccc32)c1C(=O)NN`, the “growth rescue (activation)” value is inactive: 1.38%.

As for `Cc1cc(C)c(NC(=O)CS(=O)CC(=O)NCCN2CCCCCC2)c(C)c1` (stereo not given), the “growth rescue (activation)” value is inactive: -11.6%.

As to `O=c1[nH]n2cc(-n3cc([N+](=O)[O-])cn3)cnc2c1Br`, the “growth rescue (activation)” value was inactive: -0.0047%.

On to `O=c1c2cc(N3CCOCC3)ccc2[nH]c(=S)n1Cc1ccccc1Cl`, for which the “growth rescue (activation)” value is inactive: 7.87%.

As to `Cc1ccc(S(=O)(=O)N2CCCC(C(=O)NCCc3ccccc3)C2)cc1` (stereo not given), the “growth rescue (activation)” value is inactive: -5.41%.

On to `CC1(C(=O)NS(=O)(=O)c2cccc(Cl)c2)CCN1C(=O)Cc1ccc(Cl)cc1Cl` (stereo not given), for which the “growth rescue (activation)” value is inactive: 0.515%.

For `COCCNC(=O)C(c1ccc(C)cc1)N(CCOC)C(=O)CCC(=O)Nc1nccs1` (stereo not given), the “growth rescue (activation)” value was inactive: 16%.

Consider `O=C(Nc1ccc(Br)cc1)c1ccc(-n2cnnn2)cc1`, for which the “growth rescue (activation)” value is inactive: 9.13%.

As for `O=C(COc1ccccc1[N+](=O)[O-])OC1CCS(=O)(=O)C1` (stereo not given), the “growth rescue (activation)” value was inactive: 2.41%.

On to `Cc1sc2nc(CN(C(=O)NCc3ccccc3)C3CCCC3)[nH]c(=O)c2c1C`, for which the “growth rescue (activation)” value was inactive: 8.31%.

For `CCc1ccc(CNCCNC(=O)c2ccco2)cc1`, the “growth rescue (activation)” value was inactive: -36.6%.

In the case of `CCCC12CN3CC(C)(CN(C1)C3c1ccc3c(c1)OCO3)C2=O` (stereo not given), the “growth rescue (activation)” value is inactive: 27.8%.

As for `O=C(CC1Nc2ccccc2NC1=O)Nc1ccccc1` (stereo not given), the “growth rescue (activation)” value is inactive: 17.6%.

On to `CN(C(=O)CSc1cc(Cl)ccc1Cl)C1CCS(=O)(=O)C1` (stereo not given), for which the “growth rescue (activation)” value was inactive: 0.372%.

Regarding `Cc1ccc(OC(C)C(=O)N(Cc2cccs2)C2CCS(=O)(=O)C2)cc1C` (stereo not given), the “growth rescue (activation)” value was inactive: -14.7%.

As to `COc1ccc(CCNC(=O)C2CC(=O)N(c3ccc(C)cc3)C2)cc1OC` (stereo not given), the “growth rescue (activation)” value was inactive: 5.62%.

For `O=C(Nc1nc(-c2cccc([N+](=O)[O-])c2)cs1)C(c1ccccc1)c1ccccc1`, the “growth rescue (activation)” value is inactive: -23.1%.

For `COc1cc(C(=O)Nc2sc3c(c2C(=O)O)CCC3)cc(OC)c1OC`, the “growth rescue (activation)” value is inactive: 5.38%.

Regarding `COc1ccc(-n2cc(C(=O)Nc3cc([N+](=O)[O-])ccc3OC)c3ccccc3c2=O)cc1`, the “growth rescue (activation)” value is inactive: 24.3%.

On to `O=C(COC(=O)c1cc(-c2cccs2)nn1-c1ccccc1)Nc1cc([N+](=O)[O-])ccc1Cl`, for which the “growth rescue (activation)” value is inactive: -2.12%.

In the case of `O=C(c1cccc(S(=O)(=O)N2CCN(c3ccc(F)cc3)CC2)c1)N1CCCC1`, the “growth rescue (activation)” value was inactive: -25.5%.

On to `Cc1cccc(C(=O)NC(=S)Nc2ccccc2C(=O)O)c1`, for which the “growth rescue (activation)” value is inactive: -13%.

For `O=C(CNS(=O)(=O)c1ccccc1)NCc1ccco1`, the “growth rescue (activation)” value is inactive: 10.3%.

As for `O=C(O)Cc1ccc(NC(=O)COc2ccc3ccccc3c2)cc1`, the “growth rescue (activation)” value is inactive: -6.75%.

As for `CC(C)(C)c1ccc(C(=O)NCCC(=O)NNC(=O)COc2ccccc2F)cc1`, the “growth rescue (activation)” value is inactive: -2.83%.

Regarding `O=S(=O)(c1cccc(C(F)(F)F)c1)N1CCC(c2nc3ccccc3[nH]2)CC1`, the “growth rescue (activation)” value is inactive: 4.33%.

In the case of `O=C1CCC(C(=O)OCC(=O)Nc2cc(Cl)ccc2F)=NN1`, the “growth rescue (activation)” value is inactive: 20.2%.

With `Cc1cccc(CCNC(=O)CN(C)S(=O)(=O)c2cnc[nH]2)c1`, the “growth rescue (activation)” value is inactive: 11.5%.

`O=C(CSc1nnc(NC(=O)c2ccc(F)cc2)s1)NC1CCCC1`: the “growth rescue (activation)” value is inactive: -4.56%.

Take `O=C(NCc1ccco1)c1ccc(Cl)s1`: the “growth rescue (activation)” value was inactive: 18.9%.

With `O=Cc1ccc(OCC(=O)NCC2CCCO2)cc1` (stereo not given), the “growth rescue (activation)” value is inactive: -5.36%.

In the case of `CCN(CC)CCN(CC(=O)N(C1CCCCC1)C1CCCCC1)C(=O)c1cccnc1`, the “growth rescue (activation)” value is inactive: 2.72%.
